Results: patent US20260013501A1, “HERBICIDAL DERIVATIVES” (SYNGENTA CROP PROTECTION AG, priority 2022, published 2026)
At least one read-out could not be matched to a standard name with certainty.

Tests used:
Assay type in all cases: in vivo
[1] = system: Amaranthus retoflexus (AMARE); test: Pre-emergence Test (Table B1), AMARE; details: evaluated after 13 days
[2] = system: Amaranthus palmeri (AMAPA); test: Post-emergence Test (Table B2), AMAPA; design: key: five-point scale: 5=81-100%, 4=61-80%, 3=41-60%, 2=21-40%, 1=0-20% damage; details: evaluated after 13 days
How it was run: (§1)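 Evaluation 13 days post-spray gives percent plant damage, reported in five 20% bands (1=0-20% up to 5=81-100%). Test species, sown in soil and kept at 24/16 °C day/night with 14 h light, are treated with compound in 50:50 acetone/water plus 0.5% Tween 20, applied per g/ha.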

[3] = system: Setaria faberi (SETFA); test: Post-emergence Test (Table B2), SETFA; design: key: five-point scale: 5=81-100%, 4=61-80%, 3=41-60%, 2=21-40%, 1=0-20% damage; details: evaluated after 13 days
How it was run: as §1

[4] = system: Ipomoea hederacea (IPOHE); test: Post-emergence Test (Table B2), IPOHE; design: key: five-point scale: 5=81-100%, 4=61-80%, 3=41-60%, 2=21-40%, 1=0-20% damage; details: evaluated after 13 days
How it was run: as §1

[5] = system: Amaranthus palmeri (AMAPA); test: Pre-emergence Test (Table B1), AMAPA; details: evaluated after 13 days
[6] = system: Echinochloa crus-galli (ECHCG); test: Post-emergence Test (Table B2), ECHCG; design: key: 5-point damage scale: 5=81-100%, 4=61-80%, 3=41-60%, 2=21-40%, 1=0-20%; details: evaluated after 13 days
How it was run: as §1

[7] = system: Setaria faberi (SETFA); test: Pre-emergence Test (Table B1), SETFA; details: evaluated after 13 days
[8] = system: Amaranthus retoflexus (AMARE); test: Post-emergence Test (Table B2), AMARE; design: key: five-point scale: 5=81-100%, 4=61-80%, 3=41-60%, 2=21-40%, 1=0-20% damage; details: evaluated after 13 days
How it was run: as §1

[9] = system: Zea mays (ZEAMX); test: Post-emergence Test (Table B2), ZEAMX; design: key: 5-point damage scale: 5=81-100%, 4=61-80%, 3=41-60%, 2=21-40%, 1=0-20%; details: evaluated after 13 days
How it was run: as §1

[10] = system: Echinochloa crus-galli (ECHCG); test: Pre-emergence Test (Table B1), ECHCG; details: Rate 250 g/Ha, evaluated after 13 days
[11] = system: Ipomoea hederacea (IPOHE); test: Pre-emergence Test (Table B1), IPOHE; details: Rate 250 g/Ha, evaluated after 13 days

SMILES | Pre-emergence Test, percentage damage caused to the plant (five-point scale), AMARE ([1]; Rate 1000 g/Ha) | percentage damage caused to the plant, AMAPA ([2]; rate 1000 g/Ha) | percentage damage caused to the plant, SETFA ([3]; rate 1000 g/Ha) | percentage damage caused to the plant, IPOHE ([4]; rate 1000 g/Ha) | Pre-emergence Test, percentage damage caused to the plant (five-point scale), AMAPA ([5]; Rate 1000 g/Ha) | percentage damage caused to the plant, ECHCG ([6]; rate 1000 g/Ha) | Pre-emergence Test, percentage damage caused to the plant (five-point scale), SETFA ([7]; Rate 1000 g/Ha) | percentage damage caused to the plant, AMARE ([8]; rate 1000 g/Ha) | percentage damage caused to the plant, ZEAMX ([9]; rate 1000 g/Ha) | percentage damage caused to the plant, AMAPA ([2]; rate 250 g/Ha) | percentage damage caused to the plant, IPOHE ([4]; rate 250 g/Ha) | Pre-emergence Test, percentage damage caused to the plant (five-point scale), AMAPA ([5]; Rate 250 g/Ha) | Pre-emergence Test, percentage damage caused to the plant (five-point scale), SETFA ([7]; Rate 250 g/Ha) | Pre-emergence Test, percentage damage caused to the plant (five-point scale), AMARE ([1]; Rate 250 g/Ha) | percentage damage caused to the plant, SETFA ([3]; rate 250 g/Ha) | percentage damage caused to the plant, AMARE ([8]; rate 250 g/Ha) | percentage damage caused to the plant, ZEAMX ([9]; rate 250 g/Ha) | Pre-emergence Test, percentage damage caused to the plant (five-point scale), ECHCG [10] | percentage damage caused to the plant, ECHCG ([6]; rate 250 g/Ha) | Pre-emergence Test, percentage damage caused to the plant (five-point scale), IPOHE [11]
CCn1c(Cc2ccccc2)cc(=O)c(C(=O)O)c1-c1ccc(Cl)c(Cl)c1 [Compound 3, 6-benzyl-2-(3,4-dichlorophenyl)-1-ethyl-4-oxo-pyridine-3-carboxylic acid] | 1 (1=0-20%) | 1 (1=0-20%) | 5 (5=81-100%) | 3 (3=41-60%) | 1 (1=0-20%) | 4 (4=61-80%) | 3 (3=41-60%) |  |  |  |  |  |  |  |  |  |  |  |  | 
CCn1c(Cc2ccc(C(F)(F)F)cc2)cc(=O)c(C(=O)O)c1-c1ccc(Cl)c(Cl)c1 [Compound 6, 2-(3,4-dichlorophenyl)-1-ethyl-4-oxo-6-[[4-(trifluoromethyl)phenyl]methyl]pyridine-3-carboxylic acid] | 1 (1=0-20%) | 2 (2=21-40%) | 3 (3=41-60%) | 3 (3=41-60%) | 2 (2=21-40%) | 1 (1=0-20%) | 3 (3=41-60%) | 1 (1=0-20%) | 1 (1=0-20%) |  |  |  |  |  |  |  |  |  |  | 
CCn1c(Cc2ccc(Cl)cc2)cc(=O)c(C(=O)O)c1-c1ccc(Cl)c(Cl)c1 [Compound 7, 6-[(4-chlorophenyl)methyl]-2-(3,4-dichlorophenyl)-1-ethyl-4-oxo-pyridine-3-carboxylic acid] |  | 4 (4=61-80%) | 3 (3=41-60%) | 2 (2=21-40%) | 1 (1=0-20%) | 2 (2=21-40%) |  | 3 (3=41-60%) | 1 (1=0-20%) |  |  |  |  |  |  |  |  |  |  | 
CCn1c(Cc2cccc(OC)c2)cc(=O)c(C(=O)O)c1-c1ccc(Cl)c(Cl)c1 [Compound 9, 2-(3,4-dichlorophenyl)-1-ethyl-6-[(3-methoxyphenyl)methyl]-4-oxo-pyridine-3-carboxylic acid] |  |  |  |  |  |  |  |  |  | 1 (1=0-20%) | 1 (1=0-20%) | 1 (1=0-20%) | 2 (2=21-40%) |  |  |  |  |  |  | 
CCn1c(Cc2ccc(OC)nc2)cc(=O)c(C(=O)O)c1-c1ccc(Cl)c(Cl)c1 [Compound 40, 2-(3,4-dichlorophenyl)-1-ethyl-6-[(6-methoxy-3-pyridyl)methyl]-4-oxo-pyridine-3-carboxylic acid] |  |  |  |  |  |  |  |  |  | 1 (1=0-20%) | 3 (3=41-60%) | 1 (1=0-20%) | 1 (1=0-20%) | 3 (3=41-60%) | 1 (1=0-20%) | 2 (2=21-40%) | 1 (1=0-20%) |  |  | 
CCn1c(Cc2nccnc2C(=O)O)cc(=O)c(C(=O)O)c1-c1ccc(Cl)c(Cl)c1 [Compound 49, 3-[[5-carboxy-6-(3,4-dichlorophenyl)-1-ethyl-4-oxo-2-pyridyl]methyl]pyrazine-2-carboxylic acid] |  |  |  |  |  |  |  |  |  | 2 (2=21-40%) | 1 (1=0-20%) | 2 (2=21-40%) |  |  |  | 1 (1=0-20%) | 1 (1=0-20%) | 1 (1=0-20%) | 1 (1=0-20%) | 
CCn1c(Cc2ncc(SC)cn2)cc(=O)c(C(=O)O)c1-c1ccc(Cl)c(Cl)c1 [Compound 99, 2-(3,4-dichlorophenyl)-1-ethyl-6-[(5-methylsulfanylpyrimidin-2-yl)methyl]-4-oxo-pyridine-3-carboxylic acid] |  |  |  |  |  |  |  |  |  | 1 (1=0-20%) | 3 (3=41-60%) | 1 (1=0-20%) | 2 (2=21-40%) | 1 (1=0-20%) | 3 (3=41-60%) | 1 (1=0-20%) | 1 (1=0-20%) |  | 1 (1=0-20%) | 
CCn1c(Cc2cccc(Cl)n2)cc(=O)c(C(=O)O)c1-c1ccc(OC(C)C)c(Cl)c1 [Compound 132, 2-(3-chloro-4-isopropoxy-phenyl)-6-[(6-chloro-2-pyridyl)methyl]-1-ethyl-4-oxo-pyridine-3-carboxylic acid] |  |  |  |  |  |  |  |  |  |  |  | 1 (1=0-20%) | 1 (1=0-20%) |  | 2 (2=21-40%) | 1 (1=0-20%) | 1 (1=0-20%) |  | 1 (1=0-20%) | 
CCn1c(Cc2ccnc(C(F)(F)F)n2)cc(=O)c(C(=O)O)c1-c1ccc(Cl)c(Cl)c1 [Compound 141, 2-(3,4-dichlorophenyl)-1-ethyl-4-oxo-6-[[2-(trifluoromethyl)pyrimidin-4-yl]methyl]pyridine-3-carboxylic acid] |  |  |  |  |  |  |  |  |  | 3 (3=41-60%) | 4 (4=61-80%) |  | 4 (4=61-80%) | 1 (1=0-20%) | 3 (3=41-60%) | 1 (1=0-20%) | 1 (1=0-20%) | 1 (1=0-20%) | 1 (1=0-20%) | 1 (1=0-20%)
CCn1c(Cc2cnc3ccccc3n2)cc(=O)c(C(=O)O)c1-c1ccc(Cl)c(Cl)c1 [Compound 145, 2-(3,4-dichlorophenyl)-1-ethyl-4-oxo-6-(quinoxalin-2-ylmethyl)pyridine-3-carboxylic acid] |  |  |  |  |  |  |  |  |  | 2 (2=21-40%) | 3 (3=41-60%) | 1 (1=0-20%) |  |  | 1 (1=0-20%) | 2 (2=21-40%) | 1 (1=0-20%) | 1 (1=0-20%) | 1 (1=0-20%) | 
CCn1c(Cc2nc(C(=O)OC)co2)cc(=O)c(C(=O)O)c1-c1ccc(Cl)c(Cl)c1 [Compound 148, 2-(3,4-dichlorophenyl)-1-ethyl-6-[(4-methoxycarbonyloxazol-2-yl)methyl]-4-oxo-pyridine-3-carboxylic acid] |  |  |  |  |  |  |  |  |  |  | 2 (2=21-40%) | 1 (1=0-20%) | 1 (1=0-20%) | 2 (2=21-40%) | 1 (1=0-20%) | 1 (1=0-20%) |  |  | 1 (1=0-20%) | 
CCn1c(Cc2cnc(C3CC3)nc2)cc(=O)c(C(=O)O)c1-c1ccc(Cl)c(Cl)c1 [Compound 151, 6-[(2-cyclopropylpyrimidin-5-yl)methyl]-2-(3,4-dichlorophenyl)-1-ethyl-4-oxo-pyridine-3-carboxylic acid] |  |  |  |  |  |  |  |  |  |  | 3 (3=41-60%) | 1 (1=0-20%) | 1 (1=0-20%) | 1 (1=0-20%) | 1 (1=0-20%) | 1 (1=0-20%) |  |  | 1 (1=0-20%) | 
